# The other results are listed elsewhere or left out.
# B1: Epa15 (Candida glabrata) (protein)
# chain: MGSSHHHHHHSSGLVPRGSHMASDPTTFPLGCSPEFTKTKKGLSMELYRYDYLPPGSYPCWDSAYLNPSYPRTGYKAKKLIATVDGVSGDINFKFNPKFGCKAIPDYLPSNFNYHEPITITNFTMILYGYFMPKTTAFHTFYVTADDLLFMNFGAGNAFDCCRREETADKFGNYAAYSVWGKKSLKNELTVYLHTGVYYPIRLFYNNRDYIAQLDIRFKTEHSNAIITNFTDYFYSVDDSSLGCPGLI
# Legend:
# Test in all cases: glycan array binding signal (z-score within array); higher = stronger binding
# Details in all cases: glycan notation: IUPAC condensed, linker removed
# Gal(b1-3)GalNAc(b1-3)Gal = biological target: Gal(b1-3)GalNAc(b1-3)Gal
# Summary of the method: (§1)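 Glycan array data came from 3228 arrays in the Consortium for Functional Glycomics database, and only arrays with an available protein sequence were kept. Glycan names were put into IUPAC-condensed notation, and columns mapping to the same glycan were averaged. The binding signal is a within-array Z-score, averaged across arrays of one protein sequence run at different concentrations or buffers and across linkers. A negative Z-score can be read as non-binding.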
# [1] = biological target: Gal(b1-3)GalNAc(b1-3)Gal(a1-4)Gal(b1-4)Glc
# Summary of the method: as §1
# [2] = biological target: Gal(b1-3)GalNAc(b1-3)Gal(b1-4)Glc
# Summary of the method: as §1
# [3] = biological target: Gal(b1-3)GalNAc(b1-3)Gal(b1-4)GlcNAc
# Summary of the method: as §1
# [4] = biological target: Gal(b1-3)GalNAc(b1-4)Gal(b1-4)Glc
# Summary of the method: as §1
# [5] = biological target: Gal(b1-3)GalNAc(b1-4)[Neu5Ac(a2-3)]Gal(b1-4)Glc
# Summary of the method: as §1
# Gal(b1-3)GlcNAc = biological target: Gal(b1-3)GlcNAc
# Summary of the method: as §1
# [6] = biological target: Gal(b1-3)GlcNAc(a1-3)Gal(b1-4)GlcNAc
# Summary of the method: as §1
# [7] = biological target: Gal(b1-3)GlcNAc(a1-6)Gal(b1-4)GlcNAc
# Summary of the method: as §1
# Gal(b1-3)GlcNAc(b1-2)Man = biological target: Gal(b1-3)GlcNAc(b1-2)Man
# Summary of the method: as §1
# [8] = biological target: Gal(b1-3)GlcNAc(b1-2)Man(a1-3)[Gal(b1-3)GlcNAc(b1-2)Man(a1-6)]Man(b1-4)GlcNAc(b1-4)GlcNAc
# Summary of the method: as §1
# [9] = biological target: Gal(b1-3)GlcNAc(b1-2)Man(a1-3)[Gal(b1-3)GlcNAc(b1-2)Man(a1-6)]Man(b1-4)GlcNAc(b1-4)[Fuc(a1-6)]GlcNAc
# Summary of the method: as §1
# [10] = biological target: Gal(b1-3)GlcNAc(b1-2)Man(a1-3)[GlcNAc(b1-4)][Gal(b1-3)GlcNAc(b1-2)Man(a1-6)]Man(b1-4)GlcNAc(b1-4)GlcNAc
# Summary of the method: as §1
# [11] = biological target: Gal(b1-3)GlcNAc(b1-2)[Gal(b1-3)GlcNAc(b1-6)]Man(a1-6)[Gal(b1-3)GlcNAc(b1-2)Man(a1-3)]Man(b1-4)GlcNAc(b1-4)GlcNAc
# Summary of the method: as §1
# [12] = biological target: Gal(b1-3)GlcNAc(b1-3)Gal(b1-3)GlcNAc
# Summary of the method: as §1
# [13] = biological target: Gal(b1-3)GlcNAc(b1-3)Gal(b1-4)Glc
# Summary of the method: as §1
# [14] = biological target: Gal(b1-3)GlcNAc(b1-3)Gal(b1-4)GlcNAc
# Summary of the method: as §1
# [15] = biological target: Gal(b1-3)GlcNAc(b1-3)Gal(b1-4)GlcNAc(b1-2)Man(a1-3)[Gal(b1-3)GlcNAc(b1-3)Gal(b1-4)GlcNAc(b1-2)Man(a1-6)]Man(b1-4)GlcNAc(b1-4)GlcNAc
# Summary of the method: as §1
# [16] = biological target: Gal(b1-3)GlcNAc(b1-3)Gal(b1-4)GlcNAc(b1-2)[Gal(b1-3)GlcNAc(b1-3)Gal(b1-4)GlcNAc(b1-6)]Man(a1-6)[Gal(b1-3)GlcNAc(b1-3)Gal(b1-4)GlcNAc(b1-2)Man(a1-3)]Man(b1-4)GlcNAc(b1-4)[Fuc(a1-6)]GlcNAc
# Summary of the method: as §1
# [17] = biological target: Gal(b1-3)GlcNAc(b1-3)Gal(b1-4)GlcNAc(b1-3)Gal(b1-4)GlcNAc(b1-2)[Gal(b1-3)GlcNAc(b1-3)Gal(b1-4)GlcNAc(b1-3)Gal(b1-4)GlcNAc(b1-6)]Man(a1-6)[Gal(b1-3)GlcNAc(b1-3)Gal(b1-4)GlcNAc(b1-3)Gal(b1-4)GlcNAc(b1-2)Man(a1-3)]Man(b1-4)GlcNAc(b1-4)[Fuc(a1-6)]GlcNAc
# Summary of the method: as §1
# [18] = biological target: Gal(b1-3)GlcNAc(b1-3)Gal(b1-4)GlcNAc(b1-6)[Gal(b1-3)GlcNAc(b1-3)]Gal(b1-4)Glc
# Summary of the method: as §1
# [19] = biological target: Gal(b1-3)GlcNAc(b1-3)Gal(b1-4)[Fuc(a1-3)]GlcNAc
# Summary of the method: as §1
# [20] = biological target: Gal(b1-3)GlcNAc(b1-3)Gal(b1-4)[Fuc(a1-3)]GlcNAc(b1-6)[Gal(b1-3)GlcNAc(b1-3)]Gal(b1-4)Glc
# Summary of the method: as §1
# [21] = biological target: Gal(b1-3)GlcNAc(b1-3)GalNAc
# Summary of the method: as §1
# [22] = biological target: Gal(b1-3)GlcNAc(b1-6)Gal(b1-4)GlcNAc
# Summary of the method: as §1
# [23] = biological target: Gal(b1-3)GlcNAc(b1-6)GalNAc
# Summary of the method: as §1
# [24] = biological target: Gal(b1-3)GlcNAc(b1-6)[Gal(b1-3)]GalNAc
# Summary of the method: as §1
# Gal(b1-3)GlcNAc6S = biological target: Gal(b1-3)GlcNAc6S
# Summary of the method: as §1
# [25] = biological target: Gal(b1-3)[Fuc(a1-4)]GlcNAc
# Summary of the method: as §1
# [26] = biological target: Gal(b1-3)[Fuc(a1-4)]GlcNAc(b1-2)Man
# Summary of the method: as §1
# [27] = biological target: Gal(b1-3)[Fuc(a1-4)]GlcNAc(b1-2)Man(a1-3)[Gal(b1-3)[Fuc(a1-4)]GlcNAc(b1-2)Man(a1-6)]Man(b1-4)GlcNAc(b1-4)[Fuc(a1-6)]GlcNAc
# Summary of the method: as §1
# [28] = biological target: Gal(b1-3)[Fuc(a1-4)]GlcNAc(b1-3)Gal(b1-3)[Fuc(a1-4)]GlcNAc
# Summary of the method: as §1
# [29] = biological target: Gal(b1-3)[Fuc(a1-4)]GlcNAc(b1-3)Gal(b1-4)GlcNAc
# Summary of the method: as §1
# [30] = biological target: Gal(b1-3)[Fuc(a1-4)]GlcNAc(b1-3)Gal(b1-4)[Fuc(a1-3)]GlcNAc
# Summary of the method: as §1
# [31] = biological target: Gal(b1-3)[Fuc(a1-4)]GlcNAc(b1-6)GalNAc
# Summary of the method: as §1
# [32] = biological target: Gal(b1-3)[GlcNAc(b1-6)]GalNAc
# Summary of the method: as §1
# [33] = biological target: Gal(b1-3)[GlcNAc(b1-6)]GlcNAc
# Summary of the method: as §1
# [34] = biological target: Gal(b1-3)[Neu5Ac(a2-6)]GalNAc
# Summary of the method: as §1
binder,measurement,setting,value
B1,glycan array binding signal (z-score),Gal(b1-3)GalNAc(b1-3)Gal,1.73
same,glycan array binding signal (z-score),[1],1.56
same,glycan array binding signal (z-score),[2],-0.277
same,glycan array binding signal (z-score),[3],-0.27
same,glycan array binding signal (z-score),[4],2.64
same,glycan array binding signal (z-score),[5],1.75
same,glycan array binding signal (z-score),Gal(b1-3)GlcNAc,-0.253
same,glycan array binding signal (z-score),[6],0.197
same,glycan array binding signal (z-score),[7],-0.116
same,glycan array binding signal (z-score),Gal(b1-3)GlcNAc(b1-2)Man,0.38
same,glycan array binding signal (z-score),[8],1.33
same,glycan array binding signal (z-score),[9],-0.206
same,glycan array binding signal (z-score),[10],-0.337
same,glycan array binding signal (z-score),[11],1.39
same,glycan array binding signal (z-score),[12],-0.025
same,glycan array binding signal (z-score),[13],0.01
same,glycan array binding signal (z-score),[14],-0.487
same,glycan array binding signal (z-score),[15],-0.36
same,glycan array binding signal (z-score),[16],0.867
same,glycan array binding signal (z-score),[17],0.538
same,glycan array binding signal (z-score),[18],0.468
same,glycan array binding signal (z-score),[19],-0.167
same,glycan array binding signal (z-score),[20],0.111
same,glycan array binding signal (z-score),[21],1.46
same,glycan array binding signal (z-score),[22],0.87
same,glycan array binding signal (z-score),[23],0.16
same,glycan array binding signal (z-score),[24],1.09
same,glycan array binding signal (z-score),Gal(b1-3)GlcNAc6S,0.374
same,glycan array binding signal (z-score),[25],-0.397
same,glycan array binding signal (z-score),[26],0.38
same,glycan array binding signal (z-score),[27],0.253
same,glycan array binding signal (z-score),[28],0.068
same,glycan array binding signal (z-score),[29],-0.264
same,glycan array binding signal (z-score),[30],-0.318
same,glycan array binding signal (z-score),[31],0.857
same,glycan array binding signal (z-score),[32],-0.042
same,glycan array binding signal (z-score),[33],0.08
same,glycan array binding signal (z-score),[34],0.637

# Reference: the supplement of paper PMC8728848
